Assay results: PubChem BioAssay AID504339 (National Center for Advancing Translational Sciences (NCATS), 2011)
“And” between values parts separate entries of the source, which are not always exact repeats. Equal values may be shown once. Screen size: about 390,000 compounds; about 17,000 (4.4%) were called active. Inconclusive results, whose numbers are uncertain, are shown with a selection of clear calls. The call rests on the fitted dose curve; in most records, active means well fitted inhibition curve with a large enough effect; inconclusive means small, poorly fitted or top-dose-only effect; inactive means no such curve, though single readings can be large or run the other way. A potency beside an inconclusive call is a rough fit, not a confirmed value.
Further: nearly all actives have a fitted effect of over 50% in size.
On the % scale 0 is the no-effect control and ±100 the full control effect; potency means the concentration at half of the fitted maximal effect; tags describe the fitted curve by direction and shape.

The molecules below were run against Lysine-specific demethylase 4A (Homo sapiens) (UniProt O75164) (assay: qHTS Assay for Inhibitors of JMJD2A-Tudor Domain). Conditions: AlphaScreen JMJD2A-Tudor / H3K4me3 peptide binding; activity change, negative = inhibition: at 114 µM (top of the series).
Chain of UniProt O75164 (O75164 whole entry, looked up, the tested form may be a part): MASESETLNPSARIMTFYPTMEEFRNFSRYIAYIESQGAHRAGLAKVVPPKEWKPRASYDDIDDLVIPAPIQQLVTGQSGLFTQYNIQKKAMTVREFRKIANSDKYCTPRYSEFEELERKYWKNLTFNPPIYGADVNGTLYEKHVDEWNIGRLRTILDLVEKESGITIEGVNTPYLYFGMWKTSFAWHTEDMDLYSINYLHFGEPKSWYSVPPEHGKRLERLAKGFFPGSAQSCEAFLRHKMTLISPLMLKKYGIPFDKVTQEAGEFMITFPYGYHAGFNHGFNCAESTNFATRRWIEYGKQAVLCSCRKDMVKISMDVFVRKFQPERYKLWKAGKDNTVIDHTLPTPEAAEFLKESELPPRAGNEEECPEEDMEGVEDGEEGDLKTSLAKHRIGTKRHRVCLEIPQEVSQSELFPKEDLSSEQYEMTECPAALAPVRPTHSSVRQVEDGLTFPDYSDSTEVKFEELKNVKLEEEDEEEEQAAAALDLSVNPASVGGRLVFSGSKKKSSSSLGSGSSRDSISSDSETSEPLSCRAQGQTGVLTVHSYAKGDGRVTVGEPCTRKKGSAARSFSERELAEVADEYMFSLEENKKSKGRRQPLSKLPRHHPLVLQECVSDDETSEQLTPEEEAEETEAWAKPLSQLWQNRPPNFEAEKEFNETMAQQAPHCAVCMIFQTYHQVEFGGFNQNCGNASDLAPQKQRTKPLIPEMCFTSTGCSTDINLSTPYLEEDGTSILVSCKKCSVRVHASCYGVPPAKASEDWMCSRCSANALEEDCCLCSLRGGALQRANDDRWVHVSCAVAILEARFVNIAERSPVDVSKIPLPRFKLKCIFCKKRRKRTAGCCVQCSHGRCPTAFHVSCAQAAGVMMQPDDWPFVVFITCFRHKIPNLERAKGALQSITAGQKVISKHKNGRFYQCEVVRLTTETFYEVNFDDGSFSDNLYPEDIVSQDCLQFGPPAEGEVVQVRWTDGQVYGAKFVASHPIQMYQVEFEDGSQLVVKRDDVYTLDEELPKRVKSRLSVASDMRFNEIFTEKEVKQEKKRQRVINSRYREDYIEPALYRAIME
For `COc1ccc(CCCN2CCC(CN3CCNC(=O)C3=O)CC2)cc1OC`, the Potency was inconclusive: 79.4 µM [inhibitor, partial curve].
In the case of `CC1Cc2nc(SCC(=O)NCC3CCCO3)n(C)c(=O)c2S1` (stereo unspecified), the “activity change, negative = inhibition” value is reported as inactive: -16.6%.
In the case of `COc1ccc2nc(N3C(=O)C(O)=C(C(=O)c4ccco4)C3c3ccc(C)o3)sc2c1` (stereo unspecified), the Potency is reported as inconclusive: 44.7 µM [inhibitor, partial curve].
With `COc1ccc(-n2c(CN3CCN(c4ccccn4)CC3)nc3ccc([N+](=O)[O-])cc3c2=O)c(OC)c1` the Potency was inconclusive: 35.5 µM [inhibitor, partial curve].
With `O=[N+]([O-])c1cc([N+](=O)[O-])c(Oc2ccc(F)cc2F)cc1NN1CCCCC1` the Potency was inconclusive: 8.91 µM [inhibitor, full curve, poor fit].
`Cc1ccc(O)c(NC(=S)NC(=O)/C=C/c2ccco2)c1` was tested, and the “activity change, negative = inhibition” value was inactive: -23.1%.
In the case of `CC1(c2ccccc2)CC(C)(C)N(C(=O)C2CCCO2)c2ccccc21` (stereo unspecified), the “activity change, negative = inhibition” value is reported as inactive: -13.6%.
For `COc1ccc(N2CCN(C(=O)COC(=O)CCOc3ccccc3C)CC2)cc1`, the Potency was inconclusive: 28.2 µM [inhibitor, full curve, poor fit].
`CSc1cccc(NC(=O)COc2ccccc2)c1` was tested, and the Potency was inconclusive: 3.98 µM [inhibitor, single point].
In the case of `COc1ccc(NC(C)=O)cc1NC(=O)CN1CCN(C2c3ccccc3-c3ccccc32)CC1`, the Potency is reported as inconclusive: 35.5 µM [inhibitor, partial curve].
For `Cc1ccc(CNC(=O)Cn2c3ncccc3c(=O)n2-c2ccccc2)cc1`, the Potency was inconclusive: 89.1 µM [inhibitor, single point].
`Cc1cc(C)n(CCc2nc(-c3ccco3)cs2)n1` was tested, and the Potency was active: 50.1 µM.
In the case of `CCn1ccnc1CN1CCCC(C(=O)c2ccc3cc(OC)ccc3c2)C1` (stereo unspecified), the Potency is reported as inconclusive: 39.8 µM [inhibitor, partial curve].
For `O=C1SC(SC(=Nc2ccccc2)Nc2ccccc2)C(=O)N1c1ccccc1` (stereo unspecified), the Potency was inconclusive: 50.1 µM [inhibitor, partial curve] and inconclusive: 56.2 µM [inhibitor, partial curve].
For `COc1ccc(C(c2nnnn2Cc2ccccc2)N2CCN(C(=O)c3ccco3)CC2)cc1` (stereo unspecified), the activity change, negative = inhibition was inactive: -2.74% [at 11.4 µM].
With `O=[N+]([O-])c1ccc(C(O)C23CN4CN(CN(C4)C2)C3)cc1` (stereo unspecified) the “activity change, negative = inhibition” value was inactive: -11.6%.
With `COc1cc(C)c(CN2CCSCC2)cc1C` the Potency was active: 31.6 µM.
In the case of `COC(=O)c1ccc(CSc2nc3c(c(=O)n2-c2ccc(Br)cc2)SCC3)o1`, the Potency is reported as inconclusive: 12.6 µM [inhibitor, full curve].
In the case of `CCn1cc(C(=O)N2CCN(c3cccc(Cl)c3)CC2)c(=O)c2cc(S(=O)(=O)N3CCOCC3)ccc21`, the “activity change, negative = inhibition” value is reported as inactive: -27.3%.
In the case of `Cc1ccc(NC(=O)CN2CCCC2)cc1Br`, the Potency is reported as active: 56.2 µM.
`CCN1C(=NCc2ccco2)N[C@@H](c2cccc(F)c2)C(C(=O)OC)=C1C` was tested, and the Potency was inconclusive: 31.6 µM [inhibitor, single point].
For `CC(C)(C)c1ccc(-c2cc(N)n[nH]2)cc1`, the Potency was inconclusive: 79.4 µM [inhibitor, partial curve].
In the case of `CCOC(=O)c1c(C)[nH]c(C=Nc2ccc(OC)cc2)c1O`, the Potency is reported as inconclusive: 79.4 µM [inhibitor, partial curve].
`O=[N+]([O-])c1ccc(N/N=C2\CC3CC=CC23)cc1` (stereo unspecified) was tested, and the Potency was inconclusive: 20 µM [inhibitor, full curve].
In the case of `Cc1[nH]c2ccc(-c3nnc(SCC(=O)NCc4ccco4)n3Cc3ccccc3)cc2c1C`, the Potency is reported as active: 56.2 µM.
For `c1ccc(-c2nc3ccccc3[nH]2)nc1`, the Potency was inconclusive: 14.1 µM [inhibitor, partial curve].
For `Cc1cc2cc(CNC(=S)Nc3ccc(OC(F)(F)F)cc3)ccc2[nH]1`, the Potency was inconclusive: 50.1 µM [inhibitor, partial curve].
In the case of `FC(F)(F)c1cccc(N2CCN(Cc3ccoc3)CC2)c1`, the Potency is reported as active: 3.55 µM.
For `COc1cc(NC(=O)c2ccc(C(C)(C)C)cc2)c(OC)cc1NC(=O)CN1CCCCC1`, the Potency was inconclusive: 10 µM [inhibitor, full curve, poor fit].
For `CC(=O)N(CCN(C(C)=O)c1ccccc1)c1ccccc1`, the “activity change, negative = inhibition” value was inactive: 8.11%.
In the case of `O=C1NN(c2cccc(Br)c2)C(=O)/C1=C\c1ccc(N2CCOCC2)cc1`, the Potency is reported as inconclusive: 10 µM [inhibitor, partial curve].
For `S=c1[nH]nc(COc2ccccc2)n1/N=C/c1ccccn1`, the Potency was active: 3.98 µM.
In the case of `O=[N+]([O-])c1ccc(N=Cc2sc3ccccc3c2O)cc1`, the “activity change, negative = inhibition” value is reported as inactive: -4.88%.
With `CC(=O)c1cccc([N+](=O)[O-])c1` the “activity change, negative = inhibition” value was inactive: -7.59%.
For `O=S(=O)(c1ccc(OC(F)(F)F)cc1)N1CCC(O)(c2cccc(C(F)(F)F)c2)CC1`, the “activity change, negative = inhibition” value was inactive: -15.4%.
For `CC1CCCN(CC(=O)NNC(=O)COc2ccc(Br)cc2)C1` (stereo unspecified), the Potency was inconclusive: 56.2 µM [inhibitor, partial curve].
In the case of `COc1cc(N2C(=O)C=CC2=O)c(OC)cc1Cl`, the Potency is reported as active: 10 µM.
`Cc1ccc(/C=N/Nc2ccc(Cl)c(C(=O)O)c2)s1` was tested, and the “activity change, negative = inhibition” value was inactive: -25.3%.
In the case of `COc1ccc2nc(SCC(=O)N3CCN(c4ccc(F)cc4)CC3)c(C#N)cc2c1`, the Potency is reported as inconclusive: 3.16 µM [inhibitor, partial curve].
For `CN(C)C(CNC(=O)c1ccc([N+](=O)[O-])cc1Cl)c1ccco1` (stereo unspecified), the “activity change, negative = inhibition” value was inactive: -9.46%.
In the case of `COc1ccc(OC)c(NC2=C(c3ccccc3)C(=O)c3ccccc32)c1`, the Potency is reported as active: 12.6 µM.
`COc1ccc(N2CCN(C(=O)c3cc4c(-c5ccccc5F)nn(C)c4s3)CC2)cc1` was tested, and the Potency was active: 11.2 µM.
`CC/S(CC1CC1(Cl)Cl)=N\S(=O)(=O)c1ccc(C)cc1` (stereo unspecified) was tested, and the “activity change, negative = inhibition” value was inactive: -13.1%.
`COc1ccc(/C=N/Nc2nnc(-c3ccccc3)c(=O)[nH]2)cc1` was tested, and the Potency was inconclusive: 35.5 µM [inhibitor, single point].
In the case of `Cc1ccc(N2C(=O)C3C4C=CC(CNC(=S)N5CCN(c6ccccn6)CC5)(O4)C3C2=O)cc1` (stereo unspecified), the Potency is reported as inconclusive: 31.6 µM [inhibitor, full curve].
`CCCOc1ccc(/C=C/c2[nH]c(=O)[nH]c(=O)c2[N+](=O)[O-])cc1OCC` was tested, and the Potency was inconclusive: 63.1 µM [inhibitor, partial curve, poor fit].
In the case of `Cc1ccc(CNC(=O)COC(=O)CCC(=O)c2cccs2)cc1`, the “activity change, negative = inhibition” value is reported as inactive: 15.5%.
For `COc1ccc(-c2nn(CC(=O)NC3CCCC3)c3c2cnc2ccc(F)cc23)cc1`, the “activity change, negative = inhibition” value was inactive: -9.67%.
With `NC(=O)NC(=O)CSc1nc(-c2ccccc2)c(-c2ccccc2)n1CC1CCCO1` (stereo unspecified) the Potency was inconclusive: 79.4 µM [inhibitor, single point].
With `COc1ccc(/C=C/C(=O)N(C)C2(C)CCS(=O)(=O)C2)cc1` (stereo unspecified) the “activity change, negative = inhibition” value was inactive: -13.8%.
With `COc1ccc(/C=N/Nc2nnc(-c3ncc[nH]3)c3ccccc23)cc1` the Potency was inconclusive: 63.1 µM [inhibitor, partial curve, poor fit].
`COc1cc(C(=O)NCC(c2ccco2)N2CCCC2)ccc1OCc1ccc(Cl)cc1Cl` (stereo unspecified) was tested, and the Potency was inconclusive: 44.7 µM [inhibitor, partial curve].
With `Cc1nn(CC(=O)NCc2ccco2)c(=O)c2cc3ccccc3n12` the “activity change, negative = inhibition” value was inactive: 4.7%.
`COc1cc(-c2nnc(SC/C=C/c3ccccc3)n2N)cc(OC)c1OC` was tested, and the “activity change, negative = inhibition” value was inactive: -2.08%.
In the case of `O=C(Nc1ccc2ccccc2c1)[C@@H]1C[C@H]1[C@@H](NP(=O)(c1ccccc1)c1ccccc1)c1ccccc1`, the “activity change, negative = inhibition” value is reported as inactive: -27.5%.
In the case of `CC(=O)N1CCc2c(sc3c2c(=O)n(-c2ccccc2)c(=O)n3CC(=O)Nc2ccccc2)C1`, the Potency is reported as active: 79.4 µM.
For `Cc1ccc(-c2nc3cnccn3c2Nc2ccc3c(c2)OCO3)o1`, the Potency was inconclusive: 56.2 µM [inhibitor, partial curve].
For `COc1cc(CNC(=O)c2ccc3c(c2)N(C)C(=O)C2CCCCN32)cc(OC)c1OC` (stereo unspecified), the “activity change, negative = inhibition” value was inactive: -22.7%.
With `O=[N+]([O-])c1ccc(/C=N/NC(=S)Nc2ccccc2C(F)(F)F)o1` the “activity change, negative = inhibition” value was inactive: -34.8%.
With `Cc1cccc(N2CCN(S(=O)(=O)c3cccc4nonc34)CC2C)c1` (stereo unspecified) the Potency was inconclusive: 35.5 µM [inhibitor, partial curve].
For `CN(C)c1ccc(/C=N/NC(=O)c2ccc(Cn3cc(Br)cn3)o2)cc1`, the Potency was inconclusive: 44.7 µM [inhibitor, partial curve].
For `O=C(NC1CCCCC1)/C(=N\O)c1ccccn1`, the Potency was inconclusive: 89.1 µM [inhibitor, single point].
In the case of `COc1ccc(N2CCN(c3c(S(=O)(=O)c4ccccc4)cnc4ccc(OC)cc34)CC2)cc1`, the Potency is reported as inconclusive: 15.8 µM [inhibitor, partial curve].
For `Fc1ccccc1CN1CCCCCCC1`, the Potency was active: 3.98 µM.
`C=CCn1c(Cc2nc3ccc(Cl)cc3[nH]2)n[nH]c1=S` was tested, and the Potency was inconclusive: 31.6 µM [inhibitor, partial curve].
For `Cc1c(NC(=S)NC(=O)c2sc3ccccc3c2Cl)cccc1C(=O)O`, the Potency was inconclusive: 50.1 µM [inhibitor, partial curve].
`Cc1cc(/C=C2/SC(=S)N(c3cccc(C(F)(F)F)c3)C2=O)c(C)n1-c1cccnc1` was tested, and the Potency was inconclusive: 39.8 µM [inhibitor, partial curve].
With `Nc1ccc(NC(=O)c2ccccc2)c2c1C(=O)c1ccccc1C2=O` the Potency was inconclusive: 89.1 µM [inhibitor, partial curve].
`CCOC1=NN(c2ncc(C(F)(F)F)cc2Cl)C(=O)C1` was tested, and the Potency was inconclusive: 39.8 µM [inhibitor, single point].
`CCCc1nc2ccccc2c(C(=O)OCC(=O)Nc2c(C)n(C)n(-c3ccccc3)c2=O)c1CC` was tested, and the “activity change, negative = inhibition” value was inactive: -7.28%.
In the case of `CN(Cc1ccco1)C(=O)c1ccc2c(c1)N(Cc1ccccc1F)C(=O)c1ccccc1S2`, the Potency is reported as inconclusive: 28.2 µM [inhibitor, partial curve].
